Assay results reported in US20210253662A1, “Long-Acting Recombinant GLP1-Fc-CD47 Protein and Preparation and Use Thereof” (ZHEJIANG PALO ALTO PHARMACEUTICALS, INC, priority 2018, published 2021).
Where a chain is given by its changes, count along the chain named. Blank lines part the entries; values can stand above or below the molecule they belong to.

Tests used:
human GLP-1 receptor = human GLP-1 receptor (human, UniProt P43220 24-463); experiment: cell-based or functional assay
[1] = target: human GLP-1 receptor (hGLP-1R) (Homo sapiens, UniProt P43220); settings: hGLP-1R activation, in words
Sequence of human GLP-1 receptor (hGLP-1R) (P43220 24-463): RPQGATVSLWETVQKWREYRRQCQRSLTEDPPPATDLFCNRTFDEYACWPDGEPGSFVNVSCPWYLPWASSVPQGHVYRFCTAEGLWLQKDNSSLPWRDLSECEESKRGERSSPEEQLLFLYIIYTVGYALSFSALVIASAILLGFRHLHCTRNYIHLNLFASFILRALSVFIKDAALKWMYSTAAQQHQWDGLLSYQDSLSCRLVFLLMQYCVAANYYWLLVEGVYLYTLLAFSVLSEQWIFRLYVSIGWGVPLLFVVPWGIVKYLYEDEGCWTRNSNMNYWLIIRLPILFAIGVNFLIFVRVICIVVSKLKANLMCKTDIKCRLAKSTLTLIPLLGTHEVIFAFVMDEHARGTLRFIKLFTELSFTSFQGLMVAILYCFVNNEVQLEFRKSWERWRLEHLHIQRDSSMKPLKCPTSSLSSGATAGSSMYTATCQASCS

[2] = Stability in rat serum in vitro, read as remaining activity in activating hGLP-1R; format: in vitro ADME; settings: for Stability in rat serum in vitro compared with positive control L1: in words; for Decrease in activity after 7 days of incubation in serum: rat serum, 37° C., activity at 0.03 nM, day 0 as 100%
From the text: The decay rate of protein activity indirectly reflects the stability of the protein in the serum.

Male C57BL/KsJ mice = experiment: Intraperitoneal glucose tolerance test (IPGTT) after a single s.c. dose; format: in vivo
Description: Male C57BL/KsJ mice of 6 weeks old are randomized into a vehicle control group, a positive drug group and a test protein group according to body weights and blood glucose levels, and are subcutaneously (s.c.) injected with corresponding drugs. An intraperitoneal glucose tolerance test (IPGTT) is performed after dosing for a period of time following the steps as follows: fast the mice for 6 h, collect blood samples from tail veins of the mice in each group before the test, measure the blood glucose levels with a Roche ACCU-CHEK blood glucose meter and record the results at a −60 min time point; measure blood glucose levels again at 0 min in each group before intraperitoneally injecting 2 g/kg glucose (body weight), afterwards measure and record blood glucose levels of mice in each group at 15 min, 30 min, 60 min and 120 min. An IPGTT curve is plotted based on the blood glucose levels to calculate the areas under curve (AUC0-120 min (mM*min)), and the differences are statistically analyzed using the t-test.

B2: self-L1: SEQ ID NO.: 14; self polypeptide (CD47 signal) introduced into the N-terminal of the L1 protein; tetramer (protein)
chain: GNYTCEVTELTREGETIIELKGGGGGHGEGTFTSDVSSYLEEQAAKEFIAWLVKGGGGGGGSGGGGSGGGGSA[human IgG4 Fc with S228P F234A L235A (EU numbers) left out]
modifications: tetramer; Recombinant protein self-L1
- Cellular activity compared with the L1 protein [1]: decreased

B3: recombinant protein L1-self-mu (Fc fusion)
chain: HGEGTFTSDVSSYLEEQAAKEFIAWLVRGAGGGGGSGGGGSGGGGSA[human IgG4 Fc with S228P F234A L235A (EU numbers) left out]GGGGGNYTCEVTELTREGETIIELK
- EC50 (pM) of Activity to Activate (hGLP-1R; CRE-NanoLuc luciferase reporter in AD293 cells, concentration by monomer molecular weight) (human GLP-1 receptor): 16.9 pM

B4: L1-self-mu: SEQ ID NO.: 15; self polypeptide introduced into the C-terminal of the recombinant protein L1-mu; tetramer (protein)
chain: B3 chain
modifications: tetramer; Recombinant protein L1-self-mu
notes: self polypeptide introduced into the C-terminal of the recombinant protein L1-mu; tetramer
- Stability in rat serum in vitro compared with positive control L1 [2]: much more stable than the positive control L1
- Decrease in activity after 7 days of incubation in serum [2]: 29.9%
- Hypoglycemic duration in animals (Male C57BL/KsJ mice; in words, comparison between proteins): longer hypoglycemic duration than the L1
- Decrease of area under curve (AUC) in blood glucose vs solvent control group (Male C57BL/KsJ mice; seven days after a single dose, s.c. 30 nmol/kg, IPGTT AUC0-120 min): 20%
- Hypoglycemic activity (AUC) ten days post-dose (Male C57BL/KsJ mice; ten days after a single dose, s.c. 30 nmol/kg, IPGTT): significant hypoglycemic activity is still observed
- Cellular activity compared with the L1 protein [1]: enhanced, higher than that of the L1 protein

B6: L1-self: SEQ ID NO.: 13; self polypeptide (CD47 signal) introduced into the C-terminal of the L1 protein; tetramer (protein)
chain: B3 chain with R28K, A30G
modifications: tetramer; Recombinant protein L1-self
notes: self polypeptide (CD47 signal) introduced into the C-terminal of the L1 protein; tetramer
- Stability in rat serum in vitro compared with positive control L1 [2]: much more stable than the positive control L1
- Decrease in activity after 7 days of incubation in serum [2]: 27.8%
- Cellular activity compared with the L1 protein [1]: no significant improvement

Now from value to molecule:

- EC50 (pM) of Activity to Activate (hGLP-1R; CRE-NanoLuc luciferase reporter in AD293 cells, concentration by monomer molecular weight) (human GLP-1 receptor): 24300 pM
B1: recombinant protein self-L1 (Fc fusion)
chain: B2 chain

- EC50 (pM) of Activity to Activate (hGLP-1R; CRE-NanoLuc luciferase reporter in AD293 cells, concentration by monomer molecular weight) (human GLP-1 receptor): 45.6 pM
B5: recombinant protein L1-self (Fc fusion)
chain: B3 chain with R28K, A30G

- EC50 (pM) of Activity to Activate (hGLP-1R; CRE-NanoLuc luciferase reporter in AD293 cells, concentration by monomer molecular weight) (human GLP-1 receptor): 83.6 pM
B7: recombinant protein L1-mu (Fc fusion)
chain: HGEGTFTSDVSSYLEEQAAKEFIAWLVRGAGGGGGSGGGGSGGGGSA[human IgG4 Fc with S228P F234A L235A (EU numbers) left out]
